Laboratory results taken from the RNAGym collection of RNA variant scans (doi:10.1073/pnas.2313332121).
Variants at the background level are over-represented here.

B1: TPR 5TU (parent)
chain: GGAUCUUCUCGAUCUAACAAAAAAGACAAAUCUGCCACAAAGCUUGAGAGCAUCUUCGGAUGCAGAGGCGGCAGCCUUCGGUGGCGCGAUAGCGCCAACGUUCUCAACUAUGACACGCAAAACGCGUGCUCCGUUGAAUGGAGUUUAUCAUG

Variants of: B1
Test: polymerase ribozyme fitness, log enrichment relative to wild type (log ratio); higher = more active; in vitro selection for triplet polymerase activity
Method in brief: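 Fitness is a logarithmic measure of how a genotype enriched relative to the wild type, with replicate averages weighted by inverse variance. The logarithm uses base 2, and enrichment came from Illumina sequencing of input and output libraries. Those libraries were PCR-built, transcribed mutants of each subunit of a heterodimeric triplet polymerase ribozyme, passed through one triplicate in vitro selection round that included frozen incubation at −7 °C, gel excision of extended constructs and streptavidin-bead capture. Genotypes were kept only if they had ≥10 input reads and ≥1 read per output.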

Variant	polymerase ribozyme fitness (log ratio)
G83A A150C	-3.77
G83A C85U A113C U145C G152U	≤ -4.2
G83A C95G A115U C125A U135A	≤ -4.2
G83A C95U C108A G126U C131G	≤ -4.2
G83A C105U A110G U134C	-3.98
G83A C118U G128A	≤ -4.2
G83A C125A	-0.344
G83A G94U G128U U145G	≤ -4.2
G83A U90C	-3.51
G83A U104G A120G	-1.21
G83A U134A	-2.04
G83A U135C	-2.09
G83A U135G G141A	-3.78
G83A U139C U144G	≤ -4.2
G83C A97G C108G	≤ -4.2
G83C A107C	≤ -4.2
G83C A110G	-3.65
G83C A113C	-3.35
G83C A122U U135C	≤ -4.2
G83C C85G U102C	≤ -4.2
G83C C87A	≤ -4.2

Variant	polymerase ribozyme fitness (log ratio)
G83C C95A C123G G124U	≤ -4.2
G83C C95G A97U C132G	≤ -4.2
G83C C96A A150C	-3.75
G83C C96G A106U U109C G117A G143A	≤ -4.2
G83C C103G	≤ -4.2
G83C C129G A137C U145C	≤ -4.2
G83C C132U A142U	≤ -4.2
G83C G84C C95G U102G A107G	≤ -4.2
G83C G92A G126U G128A U139C	≤ -4.2
G83C G94U	-2.72
G83C G117A	0.556
G83C G128A	-3.88
G83C U101C A119G A122U U135C U145A	-3.51
G83C U102G C103G C118U	≤ -4.2
G83C U104G C116U	-1.3
G83C U134A A138U	≤ -4.2
G83U A89G C95U C103G	≤ -4.2
G83U A89G C96G U127A	≤ -4.2
G83U A89G C103A C108G U134C A142C	≤ -4.2
G83U A89U A91G	≤ -4.2
G83U A97G A110U G117U	-3.7

Variant	polymerase ribozyme fitness (log ratio)
G83U A97U	≤ -4.2
G83U A98U C105U	-0.156
G83U A120C G141A	-0.169
G83U A120U G141C	-0.804
G83U C87A C105G A137G	≤ -4.2
G83U C93G A142U	≤ -4.2
G83U C95U	-1.53
G83U C108U	≤ -4.2
G83U C114G A115U A119U	≤ -4.2
G83U C129A	-4.02
G83U G84A G100A G128A	≤ -4.2
G83U G84C C99G	≤ -4.2
G83U G84U C105G C118U	≤ -4.2
G83U G100C	≤ -4.2
G83U G126A U148A	≤ -4.2
G83U U101A A115U G117U	≤ -4.2
G83U U127C G143A	≤ -4.2
G84A A91U U102G U144A	≤ -4.2
G84A A97U U134A	-3.23
G84A A97U U146C	-0.418
G84A A98G A110G	≤ -4.2

Variant	polymerase ribozyme fitness (log ratio)
G84A A107G G141U U148A	≤ -4.2
G84A A113U G140U	≤ -4.2
G84A C85G A106G	≤ -4.2
G84A C95A U104C	-0.367
G84A C118U	-0.13
G84A G86A G88C A113U C114A	≤ -4.2
G84A G94U G128U	≤ -4.2
G84A G100A A106G A113U G117U C123U A142C	≤ -4.2
G84A G128U	-3.84
G84A G133C	-1.78
G84A G136U	-2.81
G84A U102G A122U	-2.74
G84A U127C	-1.91
G84A U139G	-0.68
G84C A97U U139A	≤ -4.2
G84C C85A C129U U146G	≤ -4.2
G84C C99A A142C	≤ -4.2
G84C C105A C114U C125U U134C A137U A138C G143U	≤ -4.2
G84C C114U A115G C125A G128A	≤ -4.2
G84C C123G G128A U145A	≤ -4.2
G84C G94A	-4.07
